Out of some 130,000 compounds screened, about 550 (0.42%) were called active. Inconclusive means that the source gave no clear call. Such entries were picked first, then a sample of the others. Calls come from the whole dose curve; as a rule, active = well fitted inhibition curve with a large enough effect; inconclusive = small, poorly fitted or top-dose-only effect, or effect the other way; inactive = flat fitted curve, though single readings scatter. Potencies of inconclusive entries are left out as doubtful fits.
assay: qHTS Assay for Inhibitors of the ERK Signaling Pathway using a Homogeneous Screening Assay; Stimulation with EGF; details: HEK293-V1b, EGF-stimulated phospho-ERK AlphaScreen; activity change, negative = inhibition: at the top concentration; note: nearly all actives have a fitted effect of over 55% in size;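 for activity change, negative = inhibition: plate controls were stimulated vehicle wells for no effect and unstimulated vehicle basal for full effect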
Outline: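 Homogeneous cell-based phospho-ERK assay: HEK293/V1b cells in 1% FBS, compound 30 min then EGF 5 min, AlphaScreen luminescence. Activity normalized between DMSO and 25 nM EGF controls; AC50 from Hill modelling.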
Potency is the fitted concentration of half-maximal effect; tags give direction and shape of the fitted curve.

| Compound | Potency | activity change, negative = inhibition |
| --- | --- | --- |
| O=C(CCCN1C(=O)/C(=C/c2ccccc2)SC1=S)Nc1ccccc1O | inconclusive [inhibitor, single point] | – |
| Cc1ccc(-n2nc(C)c3c2OC(N)=C(C#N)C3c2ccc(C)o2)cc1 (stereo not given) | inconclusive [inhibitor, partial curve, poor fit] | – |
| CCOC(=O)C1=CN(Cc2ccc(OC)cc2)C=C(C(=O)OCC)C1c1cccs1 | inconclusive [activator, partial curve] | – |
| CC1CCCCN1C(=O)C1CCCCN1S(=O)(=O)c1cccc([N+](=O)[O-])c1 (stereo not given) | inconclusive [inhibitor, partial curve] | – |
| O=C(Nc1cccc(-c2nnc(-c3ccco3)o2)c1)c1ccccc1 | inconclusive [inhibitor, partial curve] | – |
| CCN(CC)c1ccc(/C=N/NC(=O)c2cccc(S(=O)(=O)N3CCOCC3)c2)c(O)c1 | inconclusive [inhibitor, single point] | – |
| CCn1c(O)c(C=NC2CCCC(C)C2C)sc1=S (stereo not given) | inconclusive [inhibitor, partial curve, poor fit] | – |
| COc1ccc(NC(=O)N2CCC3(CC2)CCN(C(=O)c2csnn2)CC3)cc1 | – | inactive: -10.2% |
| Cc1ccccc1-c1cc(-n2ccnc2)ncn1 | – | inactive: 25% |
| CN1CCN(c2ncc3nc(CCc4ccccc4)c(=O)n(Cc4cccs4)c3n2)CC1 | inconclusive [inhibitor, single point] | – |
| O=C1CC2c3ccccc3C1C1C(=O)N(Cc3ccccc3)C(=O)C21 (stereo not given) | inconclusive [activator, full curve, poor fit] | – |
| CCCCN=C1C([N+](=O)[O-])=CC=C2C1=NC1(CCCCC1)N2O | inconclusive [inhibitor, partial curve] | – |
| CCCCN1C[C@H](O)[C@@H](O)[C@H](O)[C@H]1CO | inconclusive [inhibitor, single point] | – |
| CC(=O)c1ccc(N2CCN(C(=O)Nc3ccc(C(C)C)cc3)CC2)cc1 | inconclusive [inhibitor, single point] | – |
| O=C(CCCc1c[nH]c2ccccc12)Nc1ccc2ccccc2c1 | inconclusive [inhibitor, single point] | – |
| CCCCOc1ccc(C(=O)Nc2ccc(C)cc2[N+](=O)[O-])cc1 | inconclusive [inhibitor, partial curve] | – |
| Cc1nc(N2CCOCC2)nc(N2CCCCC2C)c1[N+](=O)[O-] (stereo not given) | inconclusive [inhibitor, partial curve, poor fit] | – |
| COc1ccc(/C=N/N(Cc2ccccc2)c2ccccc2)cc1O | inconclusive [inhibitor, single point] | – |
| NC(=O)c1c(NC(=O)Cn2nc(C(=O)O)c3ccccc3c2=O)sc2c1CCCC2 | inconclusive [inhibitor, single point] | – |
| O=C(NC(=S)Nc1cccc2cnccc12)c1ccccc1 | inconclusive [activator, partial curve, poor fit] | – |
| CN(C)CCCNc1cc(C(C)(C)C)nc2c(-c3ccccc3)cnn12 | inconclusive [inhibitor, single point] | – |
| COc1ccc(CCN2C(=O)/C(=C\c3ccco3)SC2=S)cc1OC | inconclusive [inhibitor, partial curve] | – |

| Compound | Potency | activity change, negative = inhibition |
| --- | --- | --- |
| Cc1cc(C(=O)N2CCN(S(=O)(=O)c3ccccc3F)CC2)c(C)o1 | inconclusive [inhibitor, single point] | – |
| N#Cc1c(-c2ccccc2)cc2nc3ccccc3n2c1N | inconclusive [inhibitor, single point] | – |
| COc1cc(C(=O)Nc2ccc(Cl)c([N+](=O)[O-])c2)cc(OC)c1OC | – | inactive: 1.95% |
| Cc1ccccc1CSc1nnc(-c2ccccc2)c(=O)[nH]1 | inconclusive [inhibitor, single point] | – |
| O=C(Nc1ccc(-c2ccc3nncn3n2)cc1)C1CCCCC1 | inconclusive [activator, full curve, poor fit] | – |
| COc1ccc(NS(=O)(=O)c2cc(NC(=O)CC(=O)c3ccc([N+](=O)[O-])cc3)ccc2C)cc1 | inconclusive [inhibitor, partial curve] | – |
| COc1ccc(N2CCN(C(c3cc(OC)ccc3OC)c3nnnn3CC3CCCO3)CC2)cc1 (stereo not given) | inconclusive [inhibitor, single point] | – |
| COc1cccc([C@@H]2Oc3ccc(Br)cc3C(=O)[C@H]2OC(=O)NS(=O)(=O)c2ccc(F)cc2)c1 | – | inactive: -9.64% |
| CCSc1nc(-c2ccccc2)c2cc(Cl)ccc2n1 | inconclusive [activator, single point] | – |
| CCCCN(C)C(=O)c1nc2ccccn2c1CN1CCN(C/C=C/c2ccccc2)CC1 | inconclusive [inhibitor, partial curve, poor fit] | – |
| Cc1cc(C(=O)O)ccc1-c1ccc(/C=C2\NC(=O)N(Cc3ccccc3Cl)C2=O)o1 | inconclusive [activator, full curve, poor fit] | – |
| O=C(Cc1ccccc1)Nc1cccc(N2C(=O)C=CC2=O)c1 | inconclusive [inhibitor, single point] | – |
| C=CCN1C(=O)C(CC(=O)Nc2ccc(OC)cc2)SC1=Nc1ccc(S(N)(=O)=O)cc1 (stereo not given) | inconclusive [inhibitor, full curve] | – |
| CCn1c(CCNC(=O)c2ccc(OC)cc2)nnc1SCc1ccc(Cl)c(Cl)c1 | inconclusive [inhibitor, single point] | – |
| CN(C(=O)COC(=O)CCc1c[nH]c2ccccc12)C(c1ccccc1)c1ccccc1 | inconclusive [inhibitor, partial curve, poor fit] | – |
| Cc1ccc(C(=O)NC(=S)Nc2ccccc2N2CCCC2)cc1[N+](=O)[O-] | inconclusive [inhibitor, single point] | – |
| Nc1ccc(O)c2c1C(=O)c1ccccc1C2=O | – | inactive: 29.2% |
| CC(=O)c1ccc(-c2ccc(/C=C(/Sc3n[nH]c(C)n3)C(=O)O)o2)cc1 | inconclusive [inhibitor, partial curve, poor fit] | – |
| O=C(NNc1nc2c(F)cccc2s1)c1cc(=O)c2ccccc2o1 | inconclusive [inhibitor, partial curve, poor fit] | – |
| CN1CCN(C2=Cc3ccccc3Sc3cc(F)c(Cl)cc32)CC1 | inconclusive [inhibitor, single point] | – |
| CC(=O)/C(=N/Nc1ccc([N+](=O)[O-])cc1)N1CCCc2ccccc21 | inconclusive [inhibitor, partial curve] | – |
| ON/C=N/C(=S)Nc1ncc(C(F)(F)F)cc1Cl | inconclusive [inhibitor, single point] | – |

| Compound | Potency | activity change, negative = inhibition |
| --- | --- | --- |
| C=C(C(C)=O)C(O)c1ccccc1 (stereo not given) | – | inactive: -10.1% |
| O=C(CSc1nc2c(c(C(F)(F)F)n1)CCc1ccccc1-2)NCc1ccccc1 | – | inactive: 1.07% |
| Cc1cccc(-n2cc(CNCCc3nc(C)cc(C)n3)c(-c3cccc(F)c3)n2)c1 | inconclusive [inhibitor, single point] | – |
| Cc1cc(CNC(=O)[C@@H]2C[C@H]2[C@@H](NP(=O)(c2ccccc2)c2ccccc2)c2ccccc2)nn1C | – | inactive: 18.8% |
| CN(C)c1cc(-c2ccc(Br)cc2)oc(=O)c1Cl | inconclusive [inhibitor, single point] | – |
| CCN(CC)c1ccc(/C=C(\C#N)c2ccccn2)cc1 | inconclusive [activator, single point] | – |
| Cc1ccccc1NC(=O)c1cc(C(=O)c2cc(Cl)ccc2O)cn(-c2ccccc2C)c1=O | – | inactive: 2.93% |
| Cc1nc(-c2ccc(S(=O)(=O)Oc3ccccc3Cl)s2)cs1 | inconclusive [inhibitor, single point] | – |
| Cc1nc(SCC(=O)NNC(=O)c2cccs2)[nH]c(=O)c1C | – | inactive: 0.326% |
| COc1nc(/C=C/N(C)C)c([N+](=O)[O-])c(OC)n1 | – | inactive: -7.73% [at 57.5 µM] |
| CSc1ccc(NC(=O)Nc2cccn(Cc3ccccc3F)c2=O)cc1 | – | inactive: 2.56% |
| OC(COC(c1ccc(F)cc1)c1ccc(F)cc1)CN1CCc2ccccc2C1 (stereo not given) | inconclusive [inhibitor, single point] | – |
| COc1ccc(/C=N/n2cnc3c([nH]c4ccc(C)cc43)c2=O)cc1CN1CCCC1 | inconclusive [inhibitor, single point] | – |
| CN(C)CCN(C)Cc1ccccc1Sc1cccc2ccccc12 | inconclusive [inhibitor, single point] | – |
| COCCN(Cc1cc2c(C)cc(C)cc2nc1Cl)C(=O)c1ccccc1F | inconclusive [inhibitor, single point] | – |
| COCC(C)NC(=S)NCCc1ccc(Cl)cc1Cl (stereo not given) | inconclusive [inhibitor, single point] | – |
| Nc1c(O)ccc2c1C(=O)c1ccccc1C2=O | active: 28.2 µM | – |
| O=C(O)c1cccc(NC(=O)c2cn(-c3ccccc3)nc2-c2cc3ccccc3o2)c1 | inconclusive [inhibitor, single point] | – |
| O=C(Nc1nc(-c2cccs2)c(C(=O)C(F)(F)F)s1)c1ccccc1 | inconclusive [inhibitor, single point] | – |
| O=c1cc(-c2cccc(O)c2O)oc2ccccc12 | – | inactive: -4.04% |
| CC(=O)c1cc(C#N)c(N2CCCC2)nc1C | inconclusive [activator, full curve] | – |

Source: PubChem BioAssay AID1454 (National Center for Advancing Translational Sciences (NCATS), 2008)
